Measurements: PubChem BioAssay AID624202 (National Center for Advancing Translational Sciences (NCATS), 2012)
About 4,000 (1.1%) of roughly 380,000 compounds were called active. The shares of active, inactive and inconclusive entries below differ from those in the screen. Calls come from the whole dose curve; as a rule, active = well fitted activation curve with a large enough effect; inconclusive = small, poorly fitted or top-dose-only effect; inactive = no such curve, though single readings can be large or run the other way. Potencies of inconclusive entries are doubtful fits and often do not repeat.

Assay: qHTS Assay to Identify Small Molecule Activators of BRCA1 Expression; note: nearly all actives have a fitted effect of over 80% in size
Conditions: MCF7-BRCA1-FFLuc reporter, luminescence, 48 h; activation: at 46.1 µM (top of the series), scaled: vehicle 0%, 10 µM genistein 100% unless noted
Method in brief: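 Activators of BRCA1 expression were detected as increased firefly luciferase luminescence in engineered MCF7 cells after 48 h compound incubation. Signals were scaled to genistein 10 microM as full activation.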
Potency is the fitted concentration of half-maximal effect; tags give direction and shape of the fitted curve.

SMILES	Potency	activation
COc1ccccc1C(=O)OCc1nc(N)nc(Nc2ccccc2C)n1	inconclusive: 17.8 µM [activator, partial curve, poor fit]	
CC(C)CC(=O)N=Nc1c(O)[nH]c2ccccc12	inconclusive: 17.8 µM [activator, partial curve, poor fit]	
CC(C)(C)NC(=O)Nc1ccc(Br)cc1	inconclusive: 6.31 µM [activator, partial curve, poor fit]	
COCCN1CCN(C(=O)c2ccc3oc(CCCc4ccccc4)nc3c2)CC1	active: 12.6 µM	
CCc1nnc2c3cnn(-c4ccccc4)c3ncn12	inconclusive: 11.2 µM [activator, partial curve, poor fit]	
CCCCN1C=CC(=C2C(=O)c3ccccc3C2=O)C=C1		inconclusive: -91.9% [activator]
COCCN1CCN(C(=O)C2CCC(=O)N(Cc3ccc(Cl)cc3)C2)CC1 (configuration not stated)		inactive: 5.35%
O=C(Nc1cc(-c2nc3ncccc3o2)ccc1Cl)c1ccc2c(c1)OCO2		inactive: -12%
Cc1ccc(OCCn2c(=O)sc3ccccc32)cc1	active: 5.62 µM	
Cc1cc(C(=O)COc2cccc3cccnc23)c(C)n1C	inconclusive: 35.5 µM [activator, single point]	
Cc1ccc(OCc2cc(C(=O)N3CCN(C4CCCCC4)CC3)no2)cc1C	inconclusive: 35.5 µM [activator, single point]	
O=C(Cc1ccc(Cl)cc1)Nc1ccc(Br)cc1	inconclusive: 35.5 µM [activator, single point]	
CC(=O)c1cccc(NC(=O)c2cnn3ccccc23)c1	active: 3.55 µM	
COc1cccc2oc3ccc(C#Cc4ccccn4)cc3c(=O)c12	inconclusive: 6.31 µM [activator, full curve, poor fit]	
Cn1c(CCNC(=O)c2ccco2)nc2cc(NC(=O)NC3CCCCC3)ccc21	inconclusive: 7.08 µM [activator, partial curve, poor fit]	
CCOC(=O)C1CCCN(C(=O)CN2C(=O)c3ccccc3C2=O)C1 (configuration not stated)		inactive: 3.76%
O=C(c1ccccc1)c1cc2cc(Cl)ccc2[nH]1	active: 10 µM	
COc1ccc(NC(=S)NC(=NS(=O)(=O)c2ccc(Cl)cc2)c2ccccc2)cc1	inconclusive: 11.2 µM [activator, partial curve, poor fit]	
Cc1ccc(/C=N/Nc2ccc(C(=O)O)cc2)s1		inconclusive: -77.9% [activator]
COc1ccccc1CNC(=O)C(C)NS(=O)(=O)c1ccc(Br)cc1 (configuration not stated)		inactive: -21.6%
CCCCC(=O)Nc1ccc2c(c1)nc1n2CCSC1	inconclusive: 2.82 µM [activator, partial curve, poor fit]	
Nc1c(-c2cccc([N+](=O)[O-])c2)nc2ccccn12	inconclusive: 15.8 µM [activator, partial curve, poor fit]	
CCn1cc(C(=O)O)c(=O)c2cnc(N3CCN(C(=S)NC(=O)c4ccc(Br)cc4)CC3)nc21		inactive: -40%
CCN1CCN(c2ccc(NC(=O)c3ccc(C#N)cc3F)cc2Cl)CC1		inactive: -2.11%

SMILES	Potency	activation
Cc1ccc(C(=O)O/N=C(\N)c2cccc([N+](=O)[O-])c2)cc1	active: 3.16 µM	
Cc1c(C(=O)N2CCCCC2)oc2ccccc12	inconclusive: 25.1 µM [activator, single point]	
S=C(NCc1ccccc1)Nc1ccc2ccccc2c1	inconclusive: 7.94 µM [activator, partial curve, poor fit]	
COc1ccccc1CC(Cc1nc2ccccc2[nH]1)c1nc2ccccc2[nH]1 (configuration not stated)		inactive: -36.8%
O=C(NCc1cccs1)c1ccc2sc(C3=C[C@@H](O)[C@@H](O)[C@@H](CO)O3)nc2c1		inactive: -7.04%
COc1ccc(NC(=S)N/C(=N/CS(=O)(=O)c2ccccc2)c2ccccc2)cc1	inconclusive: 7.08 µM [activator, partial curve, poor fit]	
Cc1cccc(-c2nsc(SCC(=O)N3CCCC3)n2)c1	inconclusive: 1.26 µM [activator, partial curve, poor fit]	
O=C(C=C1SCCS1)/C=C/c1ccco1		inconclusive: 1.46% [activator]
COC(=O)C(Cc1ccc(OC(=O)c2ccccc2C)cc1)N1Cc2ccccc2C1=O (configuration not stated)	inconclusive: 35.5 µM [activator, single point]	
O=C(c1cccs1)n1nc(-c2ccco2)nc1SCc1ccccc1	inconclusive: 12.6 µM [activator, partial curve, poor fit]	
Cc1ccc(Cc2c(C3CCCCC3)nc3c4ccccc4ccn23)cc1		inactive: 3.18%
C/C(=C\c1ccccc1)C(=O)Nc1nc2ccc([N+](=O)[O-])cc2s1	inconclusive: 10 µM [activator, partial curve, poor fit]	
COc1ccc(C(=O)Nc2cc(C)c(NC(=O)c3ccccn3)cn2)cc1	inconclusive: 2.24 µM [activator, full curve, poor fit]	
COc1cccc(C(=O)N/N=C/c2ccc(Oc3ccc([N+](=O)[O-])cn3)c(OC)c2)c1		inactive: -6.74%
CC(=O)/C(=N/Nc1cccc(Cl)c1)Sc1nnc(C(O)c2ccccc2)n1-c1ccccc1 (configuration not stated)	inconclusive: 17.8 µM [activator, partial curve, poor fit]	
CC(C)(C)c1ccc(/C=C/C(=O)Nc2cccnc2)cc1		inactive: 20.1%
CC(C)(C)NC(=O)COc1ccc(-c2ccccc2)cc1	inconclusive: 10 µM [activator, partial curve, poor fit]	
CC1CCCCN1C(=O)COC(=O)c1cc(Cl)c2c(c1)OCO2 (configuration not stated)	active: 11.2 µM	
NC(=S)N/N=C\c1ccccc1OCc1ccccc1		inactive: -42.4%
CC(/C=N/NC(=O)Cc1cccs1)=C\c1ccccc1	inconclusive: 11.2 µM [activator, partial curve, poor fit]	
CCc1ccc(NC(=O)Nc2ccc3c(c2)CCC3)cc1	active: 3.55 µM	
CC1Cc2nc(SCC(=O)Nc3ccc4c(c3)OCO4)n(Cc3ccccc3)c(=O)c2S1 (configuration not stated)	active: 11.2 µM	
CN(C)Cc1c(O)ccc2occ(C(=O)c3ccccc3)c12		inactive: 0.343%
